The other results are listed elsewhere or left out.

The test system of this experiment is PfAP2-HC AP2 domain (GST-tagged). In words: gcPBM binding intensity (ln(normalized median fluorescence intensity)); higher = stronger DNA binding. The procedure, abridged:
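In this array assay, P. falciparum DNA-binding domains with a GST tag, expressed in E. coli, were applied for 1 h to primer-extended double-stranded 36-bp intergenic genomic probes and negative controls on an Agilent 4 × 180k array. Bound protein was visualised with Alexa488 anti-GST antibody at 488 nm. Binding intensity is the highest Masliner-normalised natural-log median intensity across replicate spots of either probe orientation.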
Consider “AAATTAAAATAAAATAGTACATATATTTATATTTTT [XGTACX_site1687]”, for which the “gcPBM binding intensity (ln)” value was 9.55. Take “TATTATTTTTCATATGCATGCAAAAATAAAAAAATA [TGCATGCA_site350]”: the “gcPBM binding intensity (ln)” value was 9.31. “TATAAAAAAAAAAAAAAAAAAAAAAATATATATATA [CACACA_negctrl_site817]”: the “gcPBM binding intensity (ln)” value worked out at 9.34. Take “ATGAAAAAAAAAAAAAAAAAAAAAAAAAAAAAAATA [CACACA_negctrl_site1083]”: the “gcPBM binding intensity (ln)” value is 9.29. Regarding “ATTTTTTTGTATATATATGACTGGGGATATAATCAA [GTGCAC_negctrl_site274]”, the “gcPBM binding intensity (ln)” value was 9.61. In the case of “AAAAAAAAAAAAAATTGTACTTAAATATATATATAT [XGTACX_site7604]” it was 9.29; in that of “TTAGCTTATCATTACTGTACTTTATTCATATATATG [XGTACX_site8008]”, 9.75; in that of “TAAACATTCTTATATAGTACCCATATTAAAATATAC [XGTACX_site8014]”, 9.42. Under “ATTTTTTTTTCTTGTACACACTATTTTATAATTTTA [CACACA_site6102]” stands 10.1; under “ACATACATATATTTATGTACATATATATTTATGATT [XGTACX_site6485]”, 9.67; under “TTTTGGTGTATAGTATTAATATAAAATAATTATATT [CACACA_negctrl_site47]”, 9.58.

Regarding “AATTTATATTTATGTGCATGTAATAACTGTATATAA [TGCATGCA_site349]”, the “gcPBM binding intensity (ln)” value stood at 9.52. On to “TCTAATAATAAATACACACACATATATATTTATATA [CACACA_site5169]”, for which the “gcPBM binding intensity (ln)” value is 10.1. In the case of “TTTTTTTTTGAAAAAAGTACTTAATTTTTAAGAAGA [XGTACX_site3591]” it was 8.94. On to AAGGAATGCATATAGGTGCTACACATAAAAATAAAA, for which the “gcPBM binding intensity (ln)” value was found to be 9.85. “TTAAGTAGTACATACACACACATATACAAAAAGAAA [CACACA_site3972]”: the “gcPBM binding intensity (ln)” value was determined as 10.7.

Take “TACTTTTTTCCTATTATGTTTCTTATTTTTATAAAT [XGTACX_negctrl_site561]”: the “gcPBM binding intensity (ln)” value was found to be 9.78. Under “GTCAACAAGAATTAAGTGCATAATTTTTTATTAAAT [GTGCAC_site9492]” stands 9.45. With “ATGTCAAGAACTGAACGTACAAACTTTGTAATATTG [XGTACX_site8754]”, the “gcPBM binding intensity (ln)” value was determined as 9.73. Take “AGTAATAATCGGCATGCATGTCAGTGGTAGTATATA [TGCATGCA_site312]”: the “gcPBM binding intensity (ln)” value amounted to 9.94. Turning to “ATATAATAATAATATTGTACAATAAAAAATATATAT [XGTACX_site7350]”, the “gcPBM binding intensity (ln)” value stood at 9.96. Under “ATACAGATAGGATGCACACATAATTCAAATACAATA [CACACA_site4531]” stands 9.9; under “AAATTTTATGTATAATGTACACATAAATTTTTCTTT [XGTACX_site7266]”, 9.58; under “GGAATATTAAAAAAATGTACAAAAAATAATATCCAT [XGTACX_site2596]”, 9.74. Under “TATTAATATTTTTGTTGTACTTAAAAATGATGGTAG [XGTACX_site3501]” stands 9.42.

In the case of “AGTAAAAAAAAAAAAAAAAAAAAAAAAAAAAAAAAA [GTGCAC_negctrl_site147]”, the “gcPBM binding intensity (ln)” value stood at 9.06.

On to “TATTATTTTAATTATTCACACATTATTATAAAAATT [CACACA_site5538]”, for which the “gcPBM binding intensity (ln)” value came out at 9.52. In the case of “CATATACACGAACACACACACATATAAATAAATATA [CACACA_site6379]”, the “gcPBM binding intensity (ln)” value is 10.6.

In the case of “ATATATACGTATGAATGTATATTTGTTTGAATTTTT [CACACA_negctrl_site524]”, the “gcPBM binding intensity (ln)” value came out at 9.61.

Turning to “AATAATAACATACAGACACACACGTAAAAGCACGTG [CACACA_site253]”, the “gcPBM binding intensity (ln)” value turned out to be 10.5. Turning to “TTTATATATTAATATGCACACACAAGAAGTAATTAT [CACACA_site9045]”, the “gcPBM binding intensity (ln)” value is 9.98.

“AATGGGTAAACATACACACACACATATATATATATA [CACACA_site1991]”: the “gcPBM binding intensity (ln)” value stood at 10.5. In the case of “TATAATGTTAAATAATGTACATATATTTTTTTTTTT [XGTACX_site4722]” it was 9.54.

For “TATATATATTAAAAAGTGCATTATTCATATTATATA [GTGCAC_site9400]”, the “gcPBM binding intensity (ln)” value was 9.54. Under “TTACAATTTAATATATGTACATATTTGTGATTTATC [XGTACX_site2911]” stands 9.69; under “TTTATTAATAATTATACACACATATAAAATGAATAA [CACACA_site1359]”, 9.59. Regarding “AAAATATCTTGTTACTGTACAAATATAAATAAATAC [XGTACX_site3684]”, the “gcPBM binding intensity (ln)” value was found to be 9.64. Under “ATTTGGCATAGACACACACACACACGCACGCACATA [CACACA_site6424]” stands 11.1; under “TATGTTCATCATAGCACACATATATAAATTACAACA [CACACA_site3533]”, 9.63. Under “CAAAAATAAACTATAGTACACACTTATTATTATGAA [CACACA_site2702]” stands 9.73. Under “TTTTTATGTAGAATTTTTTTATTTTTTCAAAATGGA [CACACA_negctrl_site166]” stands 8.97; under “ATTGTAATCATATGAAGTACTAATATATATTTTAAT [XGTACX_site8350]”, 9.61. As to “ATTTATAAAATTAATAGTACATATATTTATATATAT [XGTACX_site4173]”, the “gcPBM binding intensity (ln)” value was 9.62. In the case of “TATTGCACAAAATAATTTTATTATACTTTATGTTAG [TGCATGCA_negctrl_site574]” it was 9.55.

The record behind these values is the supplement of paper PMC11417369.
